Results published in publication PMC9911399, “Two distinct binding modes provide the RNA-binding protein RbFox with extraordinary sequence specificity”.
Numbering of substitutions follows the chain as printed; changes in the protein carry UniProt numbers. This is one part of the list.

B1: GCUCCAU (DNA:RNA)
RNA: GGGAGACCGGAAUUCAGAUUGUCCGCUCCAUUUAAAUCCCGUCGUAGCCACCA
DNA 1: CAATCTGAATTCCGGTCTCCC
DNA 2: TGGTGGCTACGACGGGATT
B2: CCAUGCA (DNA:RNA)
RNA: B1 RNA with G25C, U27A, C28U, C29G, A30C, U31A
DNA 1: CAATCTGAATTCCGGTCTCCC
DNA 2: TGGTGGCTACGACGGGATT
B3: AGUAUGG (DNA:RNA)
RNA: B1 RNA with G25A, C26G, C28A, C29U, A30G, U31G
DNA 1: CAATCTGAATTCCGGTCTCCC
DNA 2: TGGTGGCTACGACGGGATT
B4: GCAACGG (DNA:RNA)
RNA: B1 RNA with U27A, C28A, A30G, U31G
DNA 1: CAATCTGAATTCCGGTCTCCC
DNA 2: TGGTGGCTACGACGGGATT
B5: GAGCAAA (DNA:RNA)
RNA: B1 RNA with C26A, U27G, C29A, U31A
DNA 1: CAATCTGAATTCCGGTCTCCC
DNA 2: TGGTGGCTACGACGGGATT
B6: GUCUCAG (DNA:RNA)
RNA: B1 RNA with C26U, U27C, C28U, U31G
DNA 1: CAATCTGAATTCCGGTCTCCC
DNA 2: TGGTGGCTACGACGGGATT
B7: CUAAUCU (DNA:RNA)
RNA: B1 RNA with G25C, C26U, U27A, C28A, C29U, A30C
DNA 1: CAATCTGAATTCCGGTCTCCC
DNA 2: TGGTGGCTACGACGGGATT
B8: GGAUGAC (DNA:RNA)
RNA: B1 RNA with C26G, U27A, C28U, C29G, U31C
DNA 1: CAATCTGAATTCCGGTCTCCC
DNA 2: TGGTGGCTACGACGGGATT
B9: GUACCAA (DNA:RNA)
RNA: B1 RNA with C26U, U27A, U31A
DNA 1: CAATCTGAATTCCGGTCTCCC
DNA 2: TGGTGGCTACGACGGGATT
B10: CAUAGGA (DNA:RNA)
RNA: B1 RNA with G25C, C26A, C28A, C29G, A30G, U31A
DNA 1: CAATCTGAATTCCGGTCTCCC
DNA 2: TGGTGGCTACGACGGGATT
B11: AAUGAGU (DNA:RNA)
RNA: B1 RNA with G25A, C26A, C28G, C29A, A30G
DNA 1: CAATCTGAATTCCGGTCTCCC
DNA 2: TGGTGGCTACGACGGGATT
B12: GCUCCCU (DNA:RNA)
RNA: B1 RNA with A30C
DNA 1: CAATCTGAATTCCGGTCTCCC
DNA 2: TGGTGGCTACGACGGGATT
B13: GCACAAU (DNA:RNA)
RNA: B1 RNA with U27A, C29A
DNA 1: CAATCTGAATTCCGGTCTCCC
DNA 2: TGGTGGCTACGACGGGATT
B14: AGAUAAU (DNA:RNA)
RNA: B1 RNA with G25A, C26G, U27A, C28U, C29A
DNA 1: CAATCTGAATTCCGGTCTCCC
DNA 2: TGGTGGCTACGACGGGATT
B15: UGGAAAG (DNA:RNA)
RNA: B1 RNA with G25U, C26G, U27G, C28A, C29A, U31G
DNA 1: CAATCTGAATTCCGGTCTCCC
DNA 2: TGGTGGCTACGACGGGATT
B16: GGCGGAC (DNA:RNA)
RNA: B1 RNA with C26G, U27C, C28G, C29G, U31C
DNA 1: CAATCTGAATTCCGGTCTCCC
DNA 2: TGGTGGCTACGACGGGATT
B17: UAUAACU (DNA:RNA)
RNA: B1 RNA with G25U, C26A, C28A, C29A, A30C
DNA 1: CAATCTGAATTCCGGTCTCCC
DNA 2: TGGTGGCTACGACGGGATT
B18: UCUUGCG (DNA:RNA)
RNA: B1 RNA with G25U, C28U, C29G, A30C, U31G
DNA 1: CAATCTGAATTCCGGTCTCCC
DNA 2: TGGTGGCTACGACGGGATT
B19: CAGUCCC (DNA:RNA)
RNA: B1 RNA with G25C, C26A, U27G, C28U, A30C, U31C
DNA 1: CAATCTGAATTCCGGTCTCCC
DNA 2: TGGTGGCTACGACGGGATT
B20: CGUUUGC (DNA:RNA)
RNA: B1 RNA with G25C, C26G, C28U, C29U, A30G, U31C
DNA 1: CAATCTGAATTCCGGTCTCCC
DNA 2: TGGTGGCTACGACGGGATT
B21: UCACUGC (DNA:RNA)
RNA: B1 RNA with G25U, U27A, C29U, A30G, U31C
DNA 1: CAATCTGAATTCCGGTCTCCC
DNA 2: TGGTGGCTACGACGGGATT
B22: CUUCGAU (DNA:RNA)
RNA: B1 RNA with G25C, C26U, C29G
DNA 1: CAATCTGAATTCCGGTCTCCC
DNA 2: TGGTGGCTACGACGGGATT
B23: CGAACCU (DNA:RNA)
RNA: B1 RNA with G25C, C26G, U27A, C28A, A30C
DNA 1: CAATCTGAATTCCGGTCTCCC
DNA 2: TGGTGGCTACGACGGGATT
B24: UCAACGU (DNA:RNA)
RNA: B1 RNA with G25U, U27A, C28A, A30G
DNA 1: CAATCTGAATTCCGGTCTCCC
DNA 2: TGGTGGCTACGACGGGATT
B25: CCGUGCC (DNA:RNA)
RNA: B1 RNA with G25C, U27G, C28U, C29G, A30C, U31C
DNA 1: CAATCTGAATTCCGGTCTCCC
DNA 2: TGGTGGCTACGACGGGATT
B26: GGUCUGG (DNA:RNA)
RNA: B1 RNA with C26G, C29U, A30G, U31G
DNA 1: CAATCTGAATTCCGGTCTCCC
DNA 2: TGGTGGCTACGACGGGATT
B27: AUACAAC (DNA:RNA)
RNA: B1 RNA with G25A, C26U, U27A, C29A, U31C
DNA 1: CAATCTGAATTCCGGTCTCCC
DNA 2: TGGTGGCTACGACGGGATT
B28: CAGAUAG (DNA:RNA)
RNA: B1 RNA with G25C, C26A, U27G, C28A, C29U, U31G
DNA 1: CAATCTGAATTCCGGTCTCCC
DNA 2: TGGTGGCTACGACGGGATT
B29: AUUUCCU (DNA:RNA)
RNA: B1 RNA with G25A, C26U, C28U, A30C
DNA 1: CAATCTGAATTCCGGTCTCCC
DNA 2: TGGTGGCTACGACGGGATT
B30: CCCAUUC (DNA:RNA)
RNA: B1 RNA with G25C, U27C, C28A, C29U, A30U, U31C
DNA 1: CAATCTGAATTCCGGTCTCCC
DNA 2: TGGTGGCTACGACGGGATT
B31: UUUUCGU (DNA:RNA)
RNA: B1 RNA with G25U, C26U, C28U, A30G
DNA 1: CAATCTGAATTCCGGTCTCCC
DNA 2: TGGTGGCTACGACGGGATT

Target: T1, RBFOX1 RRM RbFoxmut (Fox-RRM*) (Homo sapiens, UniProt Q9NWB1 109-208, R118D;E147R;N151S;E152T)
T1 sequence: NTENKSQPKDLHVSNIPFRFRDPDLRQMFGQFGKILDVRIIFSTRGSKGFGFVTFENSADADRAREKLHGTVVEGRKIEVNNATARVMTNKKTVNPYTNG
Test: EMSA; HiTS-Eq, 1 nM pool, 10 min; buffer printed only for the single-RNA assays: 10 mM Tris pH 7.5, 150 mM NaCl, 3.4 mM EDTA, 0.001% NP-40, 30 C
Conditions: tags: His6 N-terminal (pET28a); label: 5' 32P
Summary of the method: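 Purified wild-type or mutant RbFox RRM at increasing concentrations was equilibrated with 1 nM of 5′-radiolabelled RNA carrying 7 randomized nucleotides for 10 min in 50 µL. Unbound RNA was separated by 8% native PAGE and sequenced. Relative association constants came from read-count changes of each RNA species compared with the control reaction, normalised to the cognate motif.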

Binder	binding signal
B1	0.0852 KA relative to UGCAUGU
B2	0.211 KA relative to UGCAUGU
B3	0.222 KA relative to UGCAUGU
B4	0.0714 KA relative to UGCAUGU
B5	0.0797 KA relative to UGCAUGU
B6	0.148 KA relative to UGCAUGU
B7	0.0573 KA relative to UGCAUGU
B8	0.124 KA relative to UGCAUGU
B9	0.0746 KA relative to UGCAUGU
B10	0.0763 KA relative to UGCAUGU
B11	0.16 KA relative to UGCAUGU
B12	0.0359 KA relative to UGCAUGU
B13	0.0618 KA relative to UGCAUGU
B14	0.0895 KA relative to UGCAUGU
B15	0.131 KA relative to UGCAUGU
B16	0.0664 KA relative to UGCAUGU

Binder	binding signal
B17	0.0811 KA relative to UGCAUGU
B18	0.168 KA relative to UGCAUGU
B19	0.0663 KA relative to UGCAUGU
B20	0.247 KA relative to UGCAUGU
B21	0.106 KA relative to UGCAUGU
B22	0.0574 KA relative to UGCAUGU
B23	0.111 KA relative to UGCAUGU
B24	0.0872 KA relative to UGCAUGU
B25	0.264 KA relative to UGCAUGU
B26	0.153 KA relative to UGCAUGU
B27	0.0726 KA relative to UGCAUGU
B28	0.0591 KA relative to UGCAUGU
B29	0.0863 KA relative to UGCAUGU
B30	0.0844 KA relative to UGCAUGU
B31	0.0939 KA relative to UGCAUGU
